In all, about 310,000 compounds went through this assay and about 14,000 (4.5%) showed an effect of 50% or more. The effect is printed as a negative number. The list shows a part of the results.
Each compound was assayed against human ether-à-go-go-related gene (hERG) potassium channel (human, UniProt Q12809) (assay: primary screen, population patch clamp on CHO cells stably expressing hERG).
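Further: peak tail current of the secondary pulse compared with the same well before compound.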

Chain of human ether-à-go-go-related gene (hERG) potassium channel (Q12809 whole entry, looked up): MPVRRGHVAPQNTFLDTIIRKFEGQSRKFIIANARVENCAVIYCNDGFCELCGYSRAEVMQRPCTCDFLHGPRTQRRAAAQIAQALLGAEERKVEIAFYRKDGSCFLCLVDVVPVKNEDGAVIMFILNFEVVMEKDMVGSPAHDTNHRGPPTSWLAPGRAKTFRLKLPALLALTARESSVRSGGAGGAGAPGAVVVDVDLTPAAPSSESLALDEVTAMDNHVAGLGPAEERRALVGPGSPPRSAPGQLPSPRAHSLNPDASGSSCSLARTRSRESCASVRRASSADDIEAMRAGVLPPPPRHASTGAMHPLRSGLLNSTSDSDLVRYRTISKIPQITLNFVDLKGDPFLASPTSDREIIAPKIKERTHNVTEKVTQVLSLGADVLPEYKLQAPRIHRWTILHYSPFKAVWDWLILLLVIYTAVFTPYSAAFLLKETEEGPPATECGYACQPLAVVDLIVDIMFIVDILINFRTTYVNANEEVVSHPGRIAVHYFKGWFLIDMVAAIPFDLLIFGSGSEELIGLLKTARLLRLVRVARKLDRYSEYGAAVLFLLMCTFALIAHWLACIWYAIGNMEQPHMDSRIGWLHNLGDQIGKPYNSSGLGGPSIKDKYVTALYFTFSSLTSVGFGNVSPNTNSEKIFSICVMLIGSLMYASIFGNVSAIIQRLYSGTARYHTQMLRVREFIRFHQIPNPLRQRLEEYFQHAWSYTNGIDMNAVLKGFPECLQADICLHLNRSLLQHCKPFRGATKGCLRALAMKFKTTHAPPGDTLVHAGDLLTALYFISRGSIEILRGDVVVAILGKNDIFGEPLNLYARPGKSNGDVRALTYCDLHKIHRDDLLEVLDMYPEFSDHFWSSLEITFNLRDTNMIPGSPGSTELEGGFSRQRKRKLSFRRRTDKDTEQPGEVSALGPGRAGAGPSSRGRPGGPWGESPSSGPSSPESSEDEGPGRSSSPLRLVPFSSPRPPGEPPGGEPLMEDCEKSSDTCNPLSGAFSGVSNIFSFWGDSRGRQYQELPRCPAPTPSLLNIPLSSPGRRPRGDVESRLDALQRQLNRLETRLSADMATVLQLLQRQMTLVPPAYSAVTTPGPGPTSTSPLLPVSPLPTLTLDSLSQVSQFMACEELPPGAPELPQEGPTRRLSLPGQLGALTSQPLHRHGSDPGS

SMILES	hERG current change (%, negative = inhibition) at 10uM [%]
CCc1ccc2c(c1)c1nnc(NN)nc1n2C	-36.4
CCOc1ccc(C2C(C(=O)c3cccs3)=C(O)C(=O)N2Cc2cccnc2)cc1 (stereo not shown)	11.6
Cc1ccc(CN2CC(C(=O)Nc3cccc(S(=O)(=O)N4CCCCC4)c3)CC2=O)cc1 (stereo not shown)	6.85
CCc1cccc(C)c1NC(=O)CSc1nnc(-c2cc3cc(Br)ccc3o2)n1CC	12.4
CC(C)c1nnc(NC(=O)CSc2ncn[nH]2)s1	3.8
Cc1ccc(C)c(NC(=O)CCNC(=O)N2C[C@H]3C[C@@H](C2)c2cccc(=O)n2C3)c1	5.35
COCCN1Cc2cccc(C(=O)Nc3ccc4c(c3)OCCO4)c2C1=O	-5.24
CC(C)(C)C1CCC(N2CCN(c3ccccc3)CC2)CC1 (stereo not shown)	11.9
CN1CCN(C(=O)CCNC(=O)Cn2cnc3ccccc3c2=O)CC1	18.4
O=C(NCc1ccc(Cl)cc1)c1cc(=O)[nH]c2ccc(S(=O)(=O)N3CCOCC3)cc12	23.1
NC(Cc1ccc(OC(F)F)cc1)C(=O)O (stereo not shown)	-0.662
CCc1ccccc1NC(=O)Cn1cccc1C1=NC(c2ccccc2)CO1 (stereo not shown)	11.9
CN(C)c1cccc(C(=O)OC(C(=O)Nc2ccc(Cl)cc2C(F)(F)F)c2ccccc2)c1 (stereo not shown)	-3.78
Cl.Fc1c(F)c(F)c(N2CCNCC2)c(F)c1F	3.51
Cn1c(/C=N/NC(=O)c2ccccc2)nc2ccccc21	-4.66
NC(=O)C1CCN(c2c([N+](=O)[O-])cc(C(F)(F)F)cc2[N+](=O)[O-])CC1	-23
CC1CCCC(NC(=O)COC(=O)c2ccc(S(=O)(=O)N3CCOCC3)cc2)C1C (stereo not shown)	1.27
CCOc1ccc(NC(=O)CCNS(=O)(=O)c2cccc3nonc23)cc1	-28.5
Cc1cccc(NS(=O)(=O)c2cc(C(=O)N3CCOCC3)ccc2Cl)c1	-5.78
O=C(CC1Nc2ccccc2NC1=O)NC1CCCCC1 (stereo not shown)	11.2
O=C(Nc1cc2c3c(c1)C1CCCC1CN3CC1CCCC21)c1ccccc1 (stereo not shown)	-12.4
CCCn1c(CN2CCN(c3cccc(Cl)c3)CC2)nc2c1c(=O)n(C)c(=O)n2C	-63.6

SMILES	hERG current change (%, negative = inhibition) at 10uM [%]
CC(C)Oc1cccc(C(=O)C2CCCN(C(=O)c3cc(C4CC4)[nH]n3)C2)c1 (stereo not shown)	-19.9
CCn1cc(SCC(=O)Nc2cc(C)on2)c2ccccc21	7.98
Cc1ccc(CN2[C@@H](Cc3ccccc3)C(=O)CS2(=O)=O)cc1	-1.62
O=C(COc1ccc2ccccc2c1Br)Nn1cnnc1	-1.78
Nc1nonc1C(=O)N/N=C/c1cc2c(cc1[N+](=O)[O-])OCO2	11.7
Cc1ccc(S(=O)(=O)NCc2ccccc2)cc1C(=O)NCCc1ccc(S(N)(=O)=O)cc1	-0.586
NS(=O)(=O)c1cccc(NS(=O)(=O)c2cccc(C(F)(F)F)c2)c1	6.96
Cc1ccc(NC(=O)NNC(=O)COc2ccc(Cl)cc2)cc1	13.3
O=C(NCc1ccccn1)c1ccc(CNS(=O)(=O)c2cccc(Cl)c2)cc1	-0.298
Cc1cc(C)c(OCC(=O)OCC(=O)NC2CCC(C)CC2)c(C)c1 (stereo not shown)	14.7
Cc1cccc(C)c1NC(=O)CN(C)C(=O)c1cc([N+](=O)[O-])ccc1N1CCOCC1	24.1
O=C(Nc1cccc(C(=O)Nc2ccc(F)cc2F)c1)c1ccccc1	2.91
CCCC(C(=O)NCC1CCCO1)N(Cc1ccccc1)C(=O)CNS(=O)(=O)c1ccccc1 (stereo not shown)	-18.6
COc1ccc(NC(=O)CCSc2ccc(F)cc2)cc1	1.71
CCCNC(=O)Cc1ncn[nH]1	2.77
COc1ccc(S(=O)(=O)Nc2ccc(S(=O)(=O)N3CCOCC3)cc2)cc1C	-7.72
CC(=O)OCC1OC(OC(C)=O)C(NC(=O)c2cccnc2)C(OC(C)=O)C1OC(C)=O (stereo not shown)	0.0309
O=S(=O)(c1cc(Cl)ccc1Cl)N1CCN2CCCC2C1 (stereo not shown)	13.3
O=C(CSc1nnc2scc(-c3ccccc3)n12)NCc1ccco1	6.54
O=C(OC1CCCCC1=O)c1cc(Cl)ccc1[N+](=O)[O-] (stereo not shown)	9.46
O=C(NCCCn1ccnc1)c1cc(Br)c(Br)s1	-32.5
